Experimental data reported in PubChem BioAssay AID1345083 (National Center for Advancing Translational Sciences (NCATS), 2018).
Hit rate of the full screen: of about 94,000 compounds, about 6,200 (6.6%) were called active. This list was built around the results that the source calls inconclusive (neither active nor inactive); the mix of calls is not that of the screen. Calls come from the whole dose curve; as a rule, active = well fitted inhibition curve with a large enough effect; inconclusive = small, poorly fitted or top-dose-only effect; inactive = flat fitted curve, though single readings scatter. Potencies beside an inconclusive call are fits to weak or partial responses and may not hold up.

Experiment: Cytotoxic Profiling in HEK 293 Cell Line of Diverse Libraries Using Quantitative High-Throughput Screening; note: nearly all actives have a fitted effect of over 60% in size
Conditions: HEK 293 viability, ATP luminescence (CellTiter-Glo), 48-72 h; activity change, negative = cytotoxicity: at 115 µM (top of the series) unless noted; series mostly up to 115 µM
Summary of the method: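 CellTiter-Glo luminescence (cellular ATP) was read after 48 or 72 hr of compound exposure at 37 degree Celsius. Cells were HEK 293 plated at 250 cells/well.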
% is set by controls: 0 for no effect and ±100 for the full control effect; potency is the fitted concentration of half-maximal effect; tags give direction and shape of the fitted curve.

SMILES | Potency | activity change, negative = cytotoxicity | outcome
C#CCNC(=O)c1nc2cccnc2n(Cc2ccccc2)c1=O | inconclusive: 126 µM [inhibitor, single point] | – | –
Cc1cc(C[C@@H]2COC[C@@H]2NC(=O)Cc2c[nH]c(=O)n(C)c2=O)on1 | inconclusive: 28.2 µM [inhibitor, partial curve, poor fit] | – | –
O=C1CCN(C(=O)CCc2nc3ccccc3s2)CCCCCCN1 | inconclusive: 50.1 µM [inhibitor, partial curve, poor fit] | – | –
CCN1C(=O)CCc2cc(NC(=O)Cc3ccc(F)cc3)ccc21 | inconclusive: 79.4 µM [inhibitor, single point] | – | –
O=C1NCCC[C@@H]1NC(=O)[C@@H]1CN(C(=O)c2ccccc2)CCN1C(=O)c1cccc(F)c1 | – | inactive: -9.64% | –
O=C(Nc1cccc(-c2ccc(N3CCOCC3)nn2)c1)Nc1ccc2c(c1)CCC2 | inconclusive: 39.8 µM [inhibitor, partial curve, poor fit] | – | –
CC(Oc1ccccc1)C(=O)N1CCC(n2cc(-c3nc(C(C)C)no3)nn2)CC1 (centres undefined) | inconclusive: 31.6 µM [inhibitor, partial curve, poor fit] | – | –
CO[C@H]1C(=O)N(C(C)C)[C@H]1C1CCN(C(=O)c2ccc(C#N)cc2)CC1 | – | inactive: -2.61% | –
Cc1nc(N2CCC(NC(=O)c3cccc4[nH]ccc34)CC2)cc(C(F)(F)F)n1 | inconclusive: 17.8 µM [inhibitor, full curve] | – | –
O=C(C1CCCC1)N1CC2(CCN(Cc3ccc(Cl)cc3)C2)Cc2ccccc21 (centres undefined) | inconclusive: 44.7 µM [inhibitor, partial curve, poor fit] | – | –
Fc1cccc(CN2CCNc3cc(Nc4ccccc4)ncc3C2)c1 | active: 39.8 µM | – | –
O=C(COc1cccc(-c2nnc3n2CCCC3)c1)N1CCN(c2ccc(F)cc2)CC1 | inconclusive: 79.4 µM [inhibitor, partial curve, poor fit] | – | –
O=C(NCCn1cccn1)c1coc(COc2cccc(C(F)(F)F)c2)n1 | inconclusive: 70.8 µM [inhibitor, single point] | – | –
NC(CN1CCCC1)C1CCCCC1 (centres undefined) | – | inactive: 2.93% [at 230 µM] | –
CC1(C)[C@H](Cc2cc(-c3ccccc3)on2)C[C@@H]1NS(C)(=O)=O | active: 89.1 µM | – | –
CC1(C(=O)NCc2cccc(F)c2)COCc2cnc(Nc3ccccc3)nc21 (centres undefined) | active: 89.1 µM | – | –
COc1cccc(C(=O)NCCNC(=O)c2ccc(-c3cccc(OC)c3)cc2)c1 | inconclusive: 89.1 µM [inhibitor, single point] | – | –
Cc1ccc(C(=O)Nc2cc(-c3ccncc3)nn2C)cc1 | inconclusive: 100 µM [inhibitor, partial curve] | – | –
O=C(Cc1ccc(F)cc1)N1CCN(C(=O)c2nnn3c2COC(c2ccc(F)cc2)C3)CC1 (centres undefined) | inconclusive: 79.4 µM [inhibitor, single point] | – | –
Cn1ccc2c(C(=O)NCc3cccnc3)nc(Nc3ccccc3)cc21 | active: 63.1 µM | – | –
COc1ccc(C2Cn3nnc(C(=O)N4CCN(C(=O)CCc5ccccc5)CC4)c3CO2)cc1 (centres undefined) | inconclusive: 20 µM [inhibitor, partial curve, poor fit] | – | –
COCC(=O)NC[C@H]1OC[C@@H](NCc2cnc[nH]2)[C@@H]1O | – | – | inactive [at 230 µM]
O=C([C@H]1C[C@H](Oc2ccccc2)CN1C(=O)c1ccccc1)N1CCOCC1 | – | inactive: -20.4% | –
O=C(C1CCCN(Cc2cccc(-c3ccsc3)c2)C1)N1CCCC1 (centres undefined) | inconclusive: 50.1 µM [inhibitor, partial curve, poor fit] | – | –
